Source: PubChem BioAssay AID686978 (National Center for Advancing Translational Sciences (NCATS), 2013)
Where “and” joins values, the source holds several entries; their conditions need not be identical. Identical values can stand only once. Screen size: about 420,000 compounds; about 64,000 (15%) were called active. Inconclusive means that the source gave no clear call. Such entries were picked first, then a sample of the others. Calls come from the whole dose curve; as a rule, active = well fitted inhibition curve with a large enough effect; inconclusive = small, poorly fitted or top-dose-only effect; inactive = flat fitted curve, though single readings scatter. Potencies of inconclusive entries are left out as doubtful fits.

Test: qHTS for Inhibitors of human tyrosyl-DNA phosphodiesterase 1 (TDP1): qHTS in cells in absence of CPT; note: nearly all actives have a fitted effect of over 55% in size
Details: DT40 Tdp1-/- hTDP1 cells, no CPT, ATP luminescence, 48 h; activity change, negative = growth inhibition: at 46.2 µM (top of the series)
How it was run: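 No-CPT arm: Tdp1-/-;hTDP1 DT40 cells (400/well) plus compounds, incubated ≥48 hr at 37 °C. Readout CellTiter-Glo luminescence.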
% is set by controls: 0 for no effect and ±100 for the full control effect; potency is the fitted concentration of half-maximal effect; tags give direction and shape of the fitted curve.

Row | SMILES | Potency | activity change, negative = growth inhibition
1 | COc1ccc(N2CCN(C(=O)c3ccc4c(Cl)c5c(nc4c3)CCCC5)CC2)cc1 | active: 20.6 µM | –
2 | CCCOP(=O)(c1ccc(N(C)C)cc1)C(O)c1ccc(N(C)C)cc1 (stereo not given) | – | inactive: -18.2%
3 | O=S(=O)(Nc1ncnc2sc3c(c12)CCC3)c1ccc2ccccc2c1 | – | inactive: -19.8%
4 | COc1ccccc1C(=O)NC1=NC(c2ccc(Br)cc2)CC(=O)N1 (stereo not given) | inconclusive [inhibitor, single point] | –
5 | CCc1cc2c(SCC(=O)Nc3ncc(Cl)c(C)c3Cl)ncnc2s1 | inconclusive [inhibitor, single point] | –
6 | Cn1nc(C(C)(C)C)c([N+](=O)[O-])c1C(=O)N1CCCCCC1 | – | inconclusive: -34.9% [inhibitor]
7 | N#Cc1ccc(C23CC4(C2)[C@H](CN(CC2CCCCC2)[C@@H]4c2ccccc2)C3c2ccccc2)cc1 (stereo not given in full) | active: 16.4 µM | –
8 | Cc1cccc(C)c1NC(=O)C(c1ccccc1)N(C)CCc1ccccc1 (stereo not given) | active: 18.4 µM | –
9 | O=C1C=C(c2ccccc2)CC(c2cccs2)C1n1cnc([N+](=O)[O-])c1 (stereo not given) | inconclusive [inhibitor, single point] | –
10 | CCOC(=O)c1ccc2c(c1)N(Cc1ccccc1C)C(=O)c1ccccc1S2=O (stereo not given) | inconclusive [inhibitor, single point] | –
11 | OCCCc1nc2n(n1)C(c1cccc(Cl)c1)C=C(c1ccccc1)N2 (stereo not given) | inconclusive [inhibitor, single point] | –
12 | COc1ccc(NC(=O)CSc2n[nH]c(=O)n2Cc2ccccc2)cc1Cl | inconclusive [inhibitor, single point] | –
13 | CCOC(=O)C1(CCCc2ccccc2)CCN(CCCn2cccn2)CC1 | inconclusive [inhibitor, single point] | –
14 | Cc1cc([N+](=O)[O-])nn1CCCC(=O)Nc1sc2c(c1C(N)=O)CCC(C)C2 (stereo not given) | inconclusive [inhibitor, single point] | –
15 | COc1cc(C(=O)NCc2nnc(SCC(=O)Nc3cccc(C(F)(F)F)c3)o2)cc(OC)c1OC | – | inactive: 6.95%
16 | CCCNC(=O)CCc1nnc2ccc(N3CCC(C)CC3)nn12 | – | inactive: 0.06%
17 | O=C(Nc1ccccc1C(=O)NCCc1ccccc1)c1cnccn1 | – | inactive: -10.7%
18 | COc1cc(-c2cc(OC)c3c(C)oc(C)c3c(=O)c2)ccc1OC(=O)c1ccccc1F | active: 20.6 µM | –
19 | CCCCN1CC(C)(C)[C@H](CC(=O)Nc2ccc(Br)cc2)C1=O | active: 16.4 µM | –
20 | CC[C@@H](C)[C@@H]1CN([C@@H](C)CN2CCC[C@H]2CN2C(N)=NC[C@@H]2Cc2ccccc2)C(=N)N1CCCC1CCCC1 | inconclusive [inhibitor, single point] | –
21 | COc1ccc(NC(=O)CN(C)CC(=O)Nc2ccc(N3CCOCC3)cc2)c([N+](=O)[O-])c1 | inconclusive [inhibitor, partial curve, poor fit] | –
22 | O=S(=O)(Nc1ccc(NS(=O)(=O)c2ccccc2)cc1)c1ccccc1 | inconclusive [inhibitor, single point] | –
23 | CC(C)C[C@H](N)c1nnc(SCc2ccc(Cl)cc2)o1 | inconclusive [inhibitor, single point] | –
24 | Cc1ccc(NC(=S)N/N=C2\CCCCC2C)cc1 (stereo not given) | active: 9.2 µM | –

Row | SMILES | Potency | activity change, negative = growth inhibition
25 | CCN(CC)C(=O)COc1c(-c2ccco2)oc2ccccc2c1=O | inconclusive [inhibitor, partial curve] | –
26 | CC(=O)c1cc(F)c(N2CCN(C(=O)Cc3ccccc3)CC2)cc1C | active: 14.6 µM | –
27 | COc1ccc(/C=C/C2=CC(C)(C)NC(=S)N2)cc1 | inconclusive [inhibitor, single point] | –
28 | O=[N+]([O-])c1cc(-c2nc(-c3ccccc3)no2)ccc1NC1CCCC1 | – | inactive: -14.4%
29 | C#CCNC(=O)C[C@@H]1C[C@@]2(C(=O)OC)CC(C)(C)CC=C2N(Cc2ccccc2)C1=O | inconclusive [inhibitor, single point] | –
30 | CCCN(CC(=O)Nc1ccc(F)c(F)c1F)C(=O)CN1C(=O)NC2(CCCCC2)C1=O | – | inactive: -20.7%
31 | CCc1cc(C(=O)NCC2Cc3cc(C)cc(-c4cc(C(C)=O)ccc4F)c3O2)n(C)n1 (stereo not given) | inconclusive [inhibitor, single point] | –
32 | COc1ccc(CN2C(=O)N(c3ccc(C)cc3)C(=O)C2CC(=O)Nc2ccccc2)cc1OC (stereo not given) | inconclusive [inhibitor, single point] | –
33 | CN(c1ccc(C(=O)Nc2ccc3c(c2)n(C)c(=O)n3C)cc1)S(C)(=O)=O | inconclusive [inhibitor, single point] | –
34 | COc1ccc(CC(=O)N(Cc2ccccc2)c2ccc(C)cc2)cc1S(=O)(=O)N1CCOCC1 | active: 16.4 µM | –
35 | CCOc1ccc2oc(-c3ccccc3)c(C(=O)N(C)C)c2c1 | active: 18.4 µM | –
36 | Cc1ccc(-n2nc3c(c2NC(=O)c2ccco2)CS(=O)C3)c(C)c1 (stereo not given) | – | inactive: -7.59%
37 | O=C(NCCNC(=O)c1ccc(-c2cc(Cl)ccc2Cl)o1)c1cnccn1 | active: 20.6 µM | –
38 | CCCCCCNC(=O)n1cc(F)c(=O)[nH]c1=O | active: 14.6 µM | –
39 | O=C(NC12CC3CC(CC(C3)C1)C2)N1CCN(c2nc(-c3ccccc3)cs2)CC1 | active: 18.4 µM | –
40 | Cc1ccc(NC(=O)Cc2nnc(SCC(=O)NC3CCCC3)n2C)cc1C | – | inactive: 23.2%
41 | COC(CN(C(=O)CCl)C(C(=O)NC1CCCC(C)C1C)c1ccc(C)cc1)OC (stereo not given) | active: 20.6 µM | –
42 | Cc1ccc2c(c1)C(=O)C(=O)N2Cc1ccc(C(F)(F)F)cc1 | active: 1.03 µM | –
43 | COc1ccccc1/C=C\C(=O)NCC(=O)N/N=C/c1ccc(O)cc1O | inconclusive [inhibitor, single point] | –
44 | Clc1ccc(N2CCN(Cc3ccc(Br)o3)CC2)cc1 | inconclusive [inhibitor, single point] | –
45 | Cc1nn(C)c(NC(=O)c2ccccc2Cl)c1Cl | – | inactive: 4.37%
46 | COc1ccc(-c2noc(CSc3nc(N)cc(=O)[nH]3)n2)cc1OC | inconclusive [inhibitor, single point] | –
47 | CCOC(=O)c1ccc(NC(=O)c2nc(SCc3ccccc3F)ncc2Cl)cc1 | inconclusive [inhibitor, single point] | –
48 | CCOc1ccccc1/C=N/NC(=O)c1nnn(-c2nonc2N)c1CN1CCC(C)CC1 | inconclusive [inhibitor, single point] | –

Row | SMILES | Potency | activity change, negative = growth inhibition
49 | COc1ccc(-c2noc(CN(C(=O)c3cc(OC)c(OC)cc3OC)C(C)C)n2)cc1 | inconclusive [inhibitor, partial curve, poor fit] | –
50 | COCCOc1ccc(C(F)(F)F)cc1NC(=O)COC(=O)c1cc([N+](=O)[O-])ccc1N1CCOCC1 | active: 23.1 µM | –
51 | CC(C)CC(=O)OC(C)(C)[C@@H]1Cc2c(ccc3ccc(=O)oc23)O1 | inconclusive [inhibitor, single point] | –
52 | COc1cc(C2C(C(=O)Nc3ccccc3)=C(C)Nc3nnnn32)cc(OC)c1OC (stereo not given) | active: 11.6 µM | –
53 | Cc1cccc(/C=C/c2onc(C)c2S(=O)(=O)N2CCC(C(=O)NC(C)(C)C)CC2)c1 | inconclusive [inhibitor, partial curve, poor fit] | –
54 | CCn1c(CNC(=O)Cc2ccc(OC)cc2)nnc1SCCOc1ccccc1 | active: 16.4 µM | –
55 | CCCCOC(=O)c1ccc(Nc2nnc(-n3nc(C)cc3C)c3ccccc23)cc1 | inconclusive [inhibitor, single point] | –
56 | CCOC(=O)c1cc(C(=O)Nc2cccc(C)c2)nn1C | inconclusive [inhibitor, single point] | –
57 | O=C(CC(O)(c1ccccc1)c1ccccc1)Nc1ccccn1 | inconclusive [inhibitor, partial curve, poor fit] | –
58 | COc1cccc(NC(=S)NN=C2CCCCCC2)c1 | active: 5.17 µM | –
59 | O=C(NCCc1ccc(Cl)cc1)c1ccc2c(c1)OCCO2 | inconclusive [inhibitor, single point] | –
60 | Cc1ccc(SCC(=O)Nc2ncc(C)s2)cc1 | – | inactive: -28.1%
61 | CC(C)n1cc(CN2CCCC(C(=O)Nc3ccccc3Oc3cccnc3)C2)cn1 (stereo not given) | – | inactive: -12.5%
62 | COc1ccc(CCNc2oc(-c3ccccc3OC)nc2C#N)cc1 | inconclusive [inhibitor, partial curve, poor fit] | –
63 | CCCn1c2ccccc2c2cnn(CC(=O)NCCc3ccc(C)cc3)c(=O)c21 | inconclusive [inhibitor, single point] | –
64 | Cc1ccc(Cl)cc1N1CCN(C(=O)c2ccc(CS(=O)Cc3ccc(Cl)cc3)o2)CC1 (stereo not given) | inconclusive [inhibitor, single point] | –
65 | CCOc1ccc(NC(=O)CC2C(=O)N(c3ccc(OC)cc3)C(=S)N2Cc2ccccn2)cc1 (stereo not given) | – | inconclusive: -33% [inhibitor]
66 | Cc1ccc(Cl)cc1NC(=O)C1CCN(c2nc3ccccc3n3cccc23)CC1 | active: 16.4 µM | –
67 | Cc1cc(OCC(=O)N2CCN(c3ccc(F)cc3)CC2)c2c(C)cc(=O)oc2c1 | – | inactive: -0.829%
68 | NC(=S)N=Nc1ccc(NN=C(N)N)cc1 | active: 2.66 µM and active: 1.46 µM | –
69 | O=C(Oc1cc(-c2ccccc2)no1)c1ccc(Cl)cc1 | inconclusive [inhibitor, single point] | –
70 | COc1ccc(-c2oc3c(c2C(=O)OCCO)C(OCCO)CCC3)cc1 (stereo not given) | inconclusive [inhibitor, single point] | –
